Measurements: PubChem BioAssay AID1030 (National Center for Advancing Translational Sciences (NCATS), 2008)
About 16,000 (7.3%) of roughly 220,000 compounds were called active. Inconclusive results, whose numbers are uncertain, are shown with a selection of clear calls. Calls follow the shape of the dose curve; as a rule, active = well fitted inhibition curve with a large enough effect (not every such curve was filed as active); inconclusive = small, poorly fitted or top-dose-only effect, or another doubt; inactive = no such curve, though single readings can be large or run the other way. A potency beside an inconclusive call is a rough fit, not a confirmed value.

Each compound was assayed against Aldehyde dehydrogenase 1A1 (Homo sapiens) (UniProt P00352) (assay: qHTS Assay for Inhibitors of Aldehyde Dehydrogenase 1 (ALDH1A1)). Conditions: Purified ALDH1A1, NADH fluorescence, propionaldehyde substrate; series mostly up to 75.3 µM; activity, negative = inhibition: at the top concentration.
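For activity, negative = inhibition in this document: plate controls were no enzyme wells and a reference inhibitor.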
Potency is read from the fitted curve at half-maximal effect; tags tell the direction and shape of the fitted curve.

Chain of UniProt P00352 (P00352 whole entry, looked up): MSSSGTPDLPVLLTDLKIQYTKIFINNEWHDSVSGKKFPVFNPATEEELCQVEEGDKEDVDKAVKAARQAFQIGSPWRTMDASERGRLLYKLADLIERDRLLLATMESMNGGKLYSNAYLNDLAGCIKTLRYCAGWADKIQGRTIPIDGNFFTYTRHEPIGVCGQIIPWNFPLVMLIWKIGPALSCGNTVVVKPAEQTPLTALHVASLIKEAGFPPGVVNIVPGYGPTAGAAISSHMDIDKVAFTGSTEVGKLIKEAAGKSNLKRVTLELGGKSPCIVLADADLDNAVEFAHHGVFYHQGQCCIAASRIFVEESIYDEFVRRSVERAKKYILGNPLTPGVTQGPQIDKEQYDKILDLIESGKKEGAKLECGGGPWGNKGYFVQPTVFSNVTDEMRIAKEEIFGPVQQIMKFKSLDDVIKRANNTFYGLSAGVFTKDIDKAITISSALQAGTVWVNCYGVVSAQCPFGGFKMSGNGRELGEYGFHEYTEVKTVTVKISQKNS

Potency, inconclusive:
CCC(c1nnnn1Cc1ccco1)N1CCN(C(=O)c2ccco2)CC1 (centres undefined) 14.1 µM [inhibitor, partial curve], Cc1cc(C)n(C(=O)CCCn2cc([N+](=O)[O-])cn2)n1 39.8 µM [inhibitor, single point], Cc1ccccc1C(=O)N1CCN(c2ccc(NC(=O)c3ccc4c(c3)OCO4)cc2)CC1 39.8 µM [inhibitor, single point], COc1ccc(OCC(=O)NC(=S)Nc2ccc(S(=O)(=O)Nc3cc(OC)nc(OC)n3)cc2)cc1 44.7 µM [inhibitor, single point], CCC(C)[C@H](NC(=O)OC(C)(C)C)c1nnc(SCc2c(C)[nH]c(=O)[nH]c2=O)o1 (some centres undefined) 17.8 µM [inhibitor, single point], O=c1cc(N2CCN(c3ccc(F)cc3)CC2)[nH]c(=O)n1C1CCCCC1 20 µM [inhibitor, single point], CC(=O)c1sc(NC(=O)c2ccc(C)cc2)nc1C 39.8 µM [inhibitor, single point], COC(=O)c1ccc(C(=O)NC(=S)Nc2nc3c(s2)CC(C)CC3)cc1 (centres undefined) 39.8 µM [inhibitor, single point], CCOC(=O)Cn1ccc(-c2ccccc2)c(C#N)c1=O 39.8 µM [inhibitor, single point], N#Cc1cc(-c2ccccc2)cn(Cc2c(Cl)cccc2Cl)c1=O 31.6 µM [inhibitor, partial curve], CCS(=O)(=O)N1CCN(C2CCC(c3ccccc3)CC2)CC1 (centres undefined) 35.5 µM [inhibitor, partial curve, poor fit], COC(=O)c1cn[nH]c1NC(=S)Nc1ccccc1C 31.6 µM [inhibitor, single point], Cc1ccc(C(=O)COC(=O)c2ccc(O)cc2)cc1 20 µM [inhibitor, single point], CSc1ccccc1NC(=S)N/N=C/c1cccn1Cc1ccc(F)cc1 23.8 µM [inhibitor, partial curve], C(=N\c1nc2ccccc2n1Cc1ccccc1)/c1cccs1 39.8 µM [inhibitor, single point], CCOC(=O)c1[nH]c2cc3c(cc2c1NC(=O)CN1CCCCC1C)OCO3 (centres undefined) 20 µM [inhibitor, partial curve], CC1(C)Oc2ccc3ccc(=O)oc3c2/C(=C/Nc2ccccn2)C1=O 35.5 µM [inhibitor, single point], CCCCNC(=O)c1ccc(N2CCC3(CC2)OCCO3)c([N+](=O)[O-])c1 39.8 µM [inhibitor, single point], COCc1ccc(CN2CCc3c([nH]c4ccccc34)C2CC(C)C)o1 (centres undefined) 14.1 µM [inhibitor, partial curve], Cc1ccc2oc(-c3ccccc3)c(C(=O)O)c(=O)c2c1 39.8 µM [inhibitor, single point], CSc1nc2sc3c(c2c(=O)n1C)CCCC3 5.01 µM [inhibitor, partial curve], CN1CC2(Cc3c1ccc1ccccc31)C(=O)OC(C)(C)OC2=O 35.5 µM [inhibitor, partial curve], CCN(CC)C(CNS(=O)(=O)c1ccc(Cl)cc1)c1ccccc1 (centres undefined) 44.7 µM [inhibitor, single point], Cc1ccc(-n2ncc3c(NCc4ccc5c(c4)OCO5)ncnc32)c(C)c1 39.8 µM [inhibitor, single point], Cc1ccc(CNC(=O)CCCc2nc3ccccc3s2)cc1 31.6 µM [inhibitor, single point], CCN(CC)c1ccc(C=C(c2nnnn2-c2ccccc2)c2nnnn2-c2ccccc2)cc1 10 µM [inhibitor, partial curve, poor fit], Cc1ccc(C2=NC(C(F)(F)F)(C(F)(F)F)c3c(n(-c4ccc(F)cc4)c(=O)[nH]c3=O)N2)cc1 35.5 µM [inhibitor, single point], C/C(=N\NC(=O)CC#N)c1cc2ccccc2oc1=O 8.91 µM [inhibitor, single point], O=C(OCc1cc(=O)n2c(n1)sc1ccccc12)c1cccc(O)c1 25.1 µM [inhibitor, partial curve], Cc1ccc(S(=O)(=O)NC2c3cccc4cccc(c34)C2Sc2ncccn2)cc1 (centres undefined) 20 µM [inhibitor, partial curve], Cc1cc(C(=O)NNc2ccc(Cl)cc2)no1 39.8 µM [inhibitor, single point]

Potency, inactive:
CCCCC#Cc1ccccc1CC(=O)Nc1ccccc1

activity, negative = inhibition, inactive:
Cc1sc(NC(=O)c2ccco2)c(C(c2cccnc2)N2CCN(C)CC2)c1C (centres undefined) -4.55%, NCCCNCCSP(=O)(O)O 2.71%, Cc1cccc(NC(=O)CN2C(=O)S/C(=C\c3ccc(-c4cccc(C(=O)O)c4C)o3)C2=O)c1 -9.79%, CCOC(=O)c1cccc(C(=O)Nc2nc3ccc(OC)cc3s2)n1 -2.6%, CC1(C)[C@@H](CC(=O)O)CCC[C@@H]1CC(=O)O 1.5% [at 13.5 µM], C#CCOc1ccc(/C=N/NC(=O)c2cccnc2)cc1OCC 6.49%, Cc1ccc(NC(=O)Cc2nnc(SCC(=O)Nc3ccccc3)n2C)cc1 10.1%, NC1=C([N+](=O)[O-])C(c2ccc(F)cc2)C2=C(CCCC2=O)O1 (centres undefined) -0.832%, N#Cc1c(N)c(C(=O)c2ccccc2)n2c1CCCC2 -19.6%, COc1cc(/C=N/OCC(=O)Nc2ccc(OC(F)F)cc2)ccc1OCc1ccccc1 -2.05%, O=C(CSc1ccc(-c2ccccc2)nn1)NCc1ccco1 -0.236%, O=C1C(=O)N(Cc2ccccc2)C(=O)N1CCOc1ccccc1 5.73%
